In all, about 48,000 compounds went through this assay and about 550 (1.1%) were called active. About 4% were inconclusive and are not listed. Cut-off read from the data, not from the text of the source: active = potency below about 15 µM; inconclusive = mostly about 16 µM to 33 µM; inactive = weaker than that. The list shows a part of the results.
Potency is the fitted concentration of half-maximal effect.

The target of this experiment is Lysosomal acid glucosylceramidase (Homo sapiens) (UniProt P04062). Put plainly: Glucocerebrosidase.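 Note: the screen sought inhibitors.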 To be noted: purified enzyme, resorufin glucoside fluorescence (screen aimed at inhibitors), 20 min. An outline of the steps: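 Wild-type enzyme at 0.2 nM final in 50mM citric acid/KH2PO4, 10mM sodium taurocholate, 0.01% tween-20, pH 5.9, with resorufin beta-D-glucopyranoside at 30 uM final. Compounds titrated, 20 min at RT, red fluorescence read; AC50 from titration.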
Chain of UniProt P04062 (P04062 whole entry, looked up): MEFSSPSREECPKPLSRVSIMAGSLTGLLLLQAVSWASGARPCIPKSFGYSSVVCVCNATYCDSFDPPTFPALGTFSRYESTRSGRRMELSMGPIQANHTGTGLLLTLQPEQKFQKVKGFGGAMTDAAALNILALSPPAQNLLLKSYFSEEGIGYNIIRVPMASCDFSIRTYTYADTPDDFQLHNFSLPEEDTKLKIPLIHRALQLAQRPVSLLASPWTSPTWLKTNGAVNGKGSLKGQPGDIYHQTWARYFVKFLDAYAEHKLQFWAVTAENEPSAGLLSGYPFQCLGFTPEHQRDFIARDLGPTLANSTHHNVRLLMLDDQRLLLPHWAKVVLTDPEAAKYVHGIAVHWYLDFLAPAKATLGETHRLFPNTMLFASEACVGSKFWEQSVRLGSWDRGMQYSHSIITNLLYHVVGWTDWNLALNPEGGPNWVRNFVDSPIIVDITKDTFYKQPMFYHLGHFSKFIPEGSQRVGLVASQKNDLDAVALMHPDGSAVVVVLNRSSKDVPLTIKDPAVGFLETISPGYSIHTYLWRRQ
Consider `Cc1nn(-c2ccccc2)c2c1C(c1ccc3c(c1)OCO3)SCC(=O)N2` (centres undefined), for which the Potency was inactive: > 76.9 µM.

For the molecule `O=C(CN1C2CCC1CC(O)(c1cccnc1)C2)Nc1ccc2c(c1)OCO2` (centres undefined), the Potency was inactive: > 76.9 µM.

Take `O=C(NC1(C(F)(F)F)Oc2ccc(Cl)cc2O1)N1CCC2(CC1)OCCO2` (centres undefined): the Potency is inactive: > 76.9 µM.

`COc1cccc(-c2nc(CS(=O)CC(=O)N3CCC4(CC3)OCCO4)c(C)o2)c1` (centres undefined): the Potency was inactive: > 76.9 µM.

Take `O=C(c1cc(=O)[nH]c2ccc(Br)cc12)N1CCC2(CC1)OCCO2`: the Potency is inactive: > 76.9 µM.

`COC(=O)N(c1ccc(OC)cc1)P1(=S)OCCC(C)O1` (centres undefined): the Potency was inactive: > 76.9 µM.

In the case of `COc1ccc(-c2cc(C(F)(F)F)n3nc(C(=O)N4CCC5(CC4)OCCO5)cc3n2)cc1OC`, the Potency was inactive: > 76.9 µM.

For the molecule `COc1ccc(N=C(C)c2c(O)n(C3CCCCC3)c(=O)[nH]c2=O)c(OC)c1`, the Potency was inactive: > 76.9 µM.

`Cc1ccc(OCC(=O)NCCN2CCN(C(=O)COc3ccc(C)cc3)CC2)cc1`: the Potency is inactive: > 76.9 µM.

Regarding `O=C(C1c2ccccc2C(=O)N2CCc3ccccc3C12)N1CCC2(CC1)OCCO2` (centres undefined), the Potency is inactive: > 76.9 µM.

`CC(C)(C)n1c(O)c(C=Nc2ccc3c(c2)CCC3)c(=O)[nH]c1=O`: the Potency was active: 10.9 µM.

For `CCCCn1c(O)c(C(C)=NCCCN(C)C)c(=O)[nH]c1=O`, the Potency is inactive: > 76.9 µM.

Turning to `O=C(CCn1c(=O)oc2ccccc21)N1CCC2(CC1)OCCO2`, the Potency was inactive: > 76.9 µM.

As for `CC(C)(C)c1ccc(O)c(CN2CCN(c3ccccc3)CC2)c1`, the Potency was inactive: > 76.9 µM.

With `Cc1cc(NC(=O)CCC(=O)N2CCC3(CC2)OCCO3)no1`, the Potency was inactive: > 76.9 µM.

For the molecule `CSc1ccc(CNC2CN3CCC2CC3)cc1` (centres undefined), the Potency was inactive: > 76.9 µM.

With `N=C1C(c2ccccc2)=C(O)CN1Cc1ccco1`, the Potency was inactive: > 76.9 µM.

For the molecule `CC(C)C1(C)N=C(c2nc3ccccc3cc2C(=O)O)NC1=O` (centres undefined), the Potency was inactive: > 76.9 µM.

`Cn1ncnc2c(=O)n(C)c(=O)nc1-2`: the Potency is inactive: > 76.9 µM.

With `CC(Cc1ccccc1)[n+]1cc(/N=C(\[O-])N(C)C)on1` (centres undefined), the Potency is inactive: > 76.9 µM.

Consider `Cc1ccc2c(c1)CC1(CN2C)C(=O)NC(=O)N(CCC2=CCCCC2)C1=O` (centres undefined), for which the Potency is inactive: > 76.9 µM.

With `C[C@H]1CCC[C@H](O)CCCCCc2cc(O)cc(O)c2C(=O)O1`, the Potency was inactive: > 76.9 µM.

As to `O=C1C2CCCN2C(c2ccccc2)N1c1ccccn1` (centres undefined), the Potency is inactive: > 76.9 µM.

Turning to `CC(=O)C1C2c3ccccc3OC1(C)N=c1s/c(=C/c3cn(C)nc3C)c(=O)n12` (centres undefined), the Potency is inactive: > 76.9 µM.

With `COC(=O)c1cc(COc2cc(C)cc3oc(=O)c4c(c23)CCC4)c(C)o1`, the Potency was inactive: > 76.9 µM.

Regarding `N#CC1=C(N)Oc2c(c(=O)oc3ccccc23)C1c1cccnc1` (centres undefined), the Potency is inactive: > 76.9 µM.

`Cc1nn(C)c(C)c1P(=S)(c1c(C)nn(C)c1C)N(C)C`: the Potency was inactive: > 76.9 µM.

Take `O[C@@H]1CCCC[C@H]1N1CCC(c2ccccc2)CC1`: the Potency was inactive: > 76.9 µM.

Take `O=C(COc1ccccc1)N1CCN(C/C=C/c2ccccc2)CC1`: the Potency is inactive: > 76.9 µM.

Turning to `CCC(=NCC1CCCO1)c1c(O)[nH]c(=O)[nH]c1=O` (centres undefined), the Potency is inactive: > 76.9 µM.

Consider `O=C(c1ccccc1)c1cn(CC(=O)N2CCOCC2)c2ccccc12`, for which the Potency is inactive: > 76.9 µM.

In the case of `COC(=O)N(c1ccccc1)P1(=S)OCCO1`, the Potency is inactive: > 76.9 µM.

In the case of `CCN(CC)CCCN=C(C)c1c(O)n(-c2ccccc2)c(=O)[nH]c1=O`, the Potency is inactive: > 76.9 µM.

`Cc1[nH]c2ccccc2c1C1=CCNCC1`: the Potency is inactive: > 76.9 µM.

Consider `c1cncc(CNC2=NCCCCC2)c1`, for which the Potency is inactive: > 76.9 µM.

For `CC12CN3CC(C)(CN(C1)C3c1cccs1)C2O` (centres undefined), the Potency was inactive: > 76.9 µM.

On to `Cc1cc(N2C(=O)CC(N3CCC(n4c(=O)[nH]c5ccccc54)CC3)C2=O)no1` (centres undefined), for which the Potency was inactive: > 76.9 µM.

Consider `CCOP(=O)(C#CC(C)(C)C)C(O)(c1ccccc1)C(F)(F)F` (centres undefined), for which the Potency was inactive: > 76.9 µM.

As to `CCCN1CCC2(CC1)NC(CO)(CO)CO2`, the Potency was inactive: > 76.9 µM.

Take `O=C(c1cc(Br)ccc1Cl)N1CCC2(CC1)OCCO2`: the Potency is inactive: > 76.9 µM.

In the case of `CCOC(=O)c1c(-c2ccccc2)oc2ccc(OC(=O)N(C)C)cc12`, the Potency is inactive: > 76.9 µM.

Regarding `CCN1CCC2(CCNC2)C1` (centres undefined), the Potency was inactive: > 76.9 µM.

With `O=C1CC(N2CCC(n3c(=O)[nH]c4ccccc43)CC2)C(=O)N1c1ccc(F)cc1` (centres undefined), the Potency is inactive: > 76.9 µM.

With `O=C(NC[P+](=O)O)OCc1ccccc1`, the Potency is inactive: > 76.9 µM.

As to `O=C(Cc1ccccc1)N1CCN(Cc2ccccn2)CC1`, the Potency is inactive: > 76.9 µM.

As to `COc1ccc2c(c1)CC1(CN2C)C(=O)NC(=O)N(c2ccc(F)cc2)C1=O` (centres undefined), the Potency is inactive: > 76.9 µM.

On to `Cc1cccc(N2C(=O)NC(=O)C3(Cc4cc(C)ccc4N(C)C3)C2=O)c1` (centres undefined), for which the Potency is inactive: > 76.9 µM.

For `Cc1ccc2c(c1)C1CN(C)CCC1N2C(=O)c1ccc(Br)o1` (centres undefined), the Potency was inactive: > 76.9 µM.

For `Cn1c[n+](C)cc1C(O)c1ccccc1` (centres undefined), the Potency was inactive: > 76.9 µM.

`Cc1ccc2c(c1)CC1(CN2C)C(=O)NC(=O)N(c2ccc(C)c(C)c2)C1=O` (centres undefined): the Potency is inactive: > 76.9 µM.

As to `Cc1onc(-c2ccccc2)c1C(=O)N1CCC2(CC1)OCCO2`, the Potency is inactive: > 76.9 µM.

Turning to `CC1(C)N(O)C2CCCCC2N1O` (centres undefined), the Potency entry is “inactive”.

As to `O/N=C1/C(=C\c2ccccc2)N2CCC1CC2`, the Potency was inactive: > 76.9 µM.

`COC(=O)CC1(Cc2ccccc2)C(=O)NC(=O)NC1=O`: the Potency was inactive: > 76.9 µM.

In the case of `CCCc1nc2ccccc2c(=O)n1-c1cccc(OC)c1`, the Potency is inactive: > 76.9 µM.

As for `CCOC(=O)CC1=C(C(=O)OCC)C2(C(=O)Nc3ccccc32)C(C#N)=C(N)O1` (centres undefined), the Potency was inactive: > 76.9 µM.

With `CCCCn1c(O)c(C=NC2CC3CCC2(C)C3(C)C)c(=O)[nH]c1=O` (centres undefined), the Potency was inactive: > 76.9 µM.

With `O=C(COc1ccc(Cl)cc1)NC1CN2CCC1CC2` (centres undefined), the Potency was inactive: > 76.9 µM.

With `COc1ccc(C(CC(=O)N2CCC3(CC2)OCCO3)NS(=O)(=O)c2ccc(F)cc2)cc1` (centres undefined), the Potency is inactive: > 76.9 µM.
